The full ranking holds about 33,000 sequences; the median of “E-score (-0.5 to 0.5)” is about -0.04, and the highest 2% start at about 0.36. The list shows a part of the results.
The sequences below were run against T1, Hmlalpha2 (UniProt P0CY09) (assay: PBM E-score (8-mer binding enrichment) (E-score (-0.5 to 0.5)); higher = stronger / more preferred TF binding; most listed sequences are background and not binding sites). Conditions: protein concentration: 200 nM; construct: GST-full length.
T1 sequence: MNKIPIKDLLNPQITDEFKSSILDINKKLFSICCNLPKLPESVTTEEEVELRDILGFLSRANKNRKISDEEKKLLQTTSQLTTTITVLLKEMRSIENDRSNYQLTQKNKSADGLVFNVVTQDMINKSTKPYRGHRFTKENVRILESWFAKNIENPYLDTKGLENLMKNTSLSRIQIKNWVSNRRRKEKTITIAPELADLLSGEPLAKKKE
Method: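 Universal 'all 10-mer' protein binding microarrays (Agilent AMADID 015681) probed with GST-tagged S. cerevisiae TFs (full-length or DBD) made by in vitro transcription/translation (PURExpress), about 100-200 nM. Bound TF was detected with fluorescent anti-GST. Each ungapped 8-mer (which stands for itself and its reverse complement) is scored by the PBM enrichment score (E-score), a modified Wilcoxon-Mann-Whitney statistic from -0.5 to +0.5, computed with the Universal PBM Analysis Suite. Scale: above 0.35 generally sequence-specific binding.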

Sequence | PBM E-score
CGAGCTAC | -0.0354
TACGGTCA | -0.0514
AGGTTGCG | -0.0647
ATGCGATC | 0.0321
AGGACCAT | -0.212
GGAGGTCA | -0.233
CATTAATC | 0.123
AGTCCTAC | -0.0223
AAACATAC | 0.267
GATCATAA | 0.0574
TCGCGGCA | -0.165
CCTACGGC | -0.293
CACGACTG | -0.0303
ACCCCTCA | -0.27
AACTGTGA | 0.0641
CCCGTCAG | -0.315
GGAAAGTA | -0.136
TCACGGGA | -0.106
AGATACAT | 0.388
TGACAAAA | 0.146
TGCGCCCA | -0.202
ACCTTCGA | -0.151
GGACAACA | 0.223
ACACGACT | 0.391
CATCGCAA | 0.024

Sequence | PBM E-score
GAACCTGA | -0.13
CAGCTTAA | 0.136
AACTTCAA | 0.183
CTACGCGA | 0.277
ATAAAACC | -0.12
GTGAAATA | 0.185
ATAAGAGA | -0.0444
CATGACAG | 0.108
ATACATAG | 0.415
AACCAATC | 0.0359
TGGACCCA | -0.124
AAGCGAGC | -0.00615
GGACACCC | -0.423
GCAAGCGC | -0.271
ACGAAAGT | -0.00393
AAATGAGT | 0.1
TAGTCATA | 0.0124
GGAAGACA | 0.0409
AATACCAT | 0.24
ACTATTAG | -0.0916
ACTCCGAA | -0.114
AAAAGGTA | 0.126
ATAAAGAA | 0.0809
CACCAAAA | 0.0947
CACTAGGC | -0.132

Sequence | PBM E-score
AGGAGTGG | -0.145
TCTGGTCA | -0.0252
ATTCAAGC | 0.0409
ACTACGGA | -0.223
AACACTGC | 0.123
ATCGGTAG | 0.0267
ACCAGGGC | -0.106
TAAGGGCA | -0.0721
CAATCATA | 0.108
GATAAAAC | 0.202
CCGAGTCA | -0.107
TACCCGGA | -0.0376
AGTCAGCC | -0.2
CCAATGGC | -0.212
CATGAATC | 0.0618
AATCGTAA | 0.132
CCAGCATC | -0.187
CGCTTGTC | -0.0392
GAGACCGC | -0.256
GTGCTGTA | 0.114
CTACCCCA | -0.146
CTGATCTA | -0.0126
ACCGCTCT | -0.165
AGCAGCGG | -0.213
ATGGCTCC | 0.0615

Sequence | PBM E-score
CCCGGTCG | -0.384
GGACGACC | -0.205
CAGCAACG | 0.18
AGCTGAGA | -0.157
AGCTAGAA | -0.0183
AAACGTTC | 0.0374
GAGGCTCC | -0.171
TAAAGTTA | 0.242
CCGCGACC | -0.289
AAATTGCC | -0.0531
AGCCACGC | -0.181
ATAGTTTG | 0.131
AAGTTCCA | -0.101
CAAGGGCC | -0.151
ATGCGAGG | -0.117
ATGCGATA | 0.0621
GCGGTTTA | 0.0488
GCCTTGAA | -0.287
AATCCTAG | 0.0164
CCCGCAGA | -0.18
TCTACACA | 0.445
AAAACCCC | -0.134
TCCCCCCA | -0.331
CAAATGAA | 0.0294
CGGTATTC | 0.0271

Sequence | PBM E-score
AAAGTTAT | 0.209
CCAGATAG | -0.176
GGTATGAA | 0.0704
GGGTTGCA | -0.0367
CTGCGTGA | 0.0311
AAGATTGC | -0.0744
ATTATATC | 0.0602
GAGCCCAA | -0.209
CTCGAGTC | -0.178
CATGCACC | 0.108
ATGGAGAC | -0.149
ATCTCGTA | 0.191
ACGTAAGC | 0.0597
AACGGAGT | 0.0457
GCTAGCTA | 0.0011
CGAGGTGC | -0.0496
GGTTAGAA | -0.232
TACTAGAA | 0.0746
GGCTCTAA | -0.0554
AGCAAATA | 0.0713
CAAGGGTC | -0.199
GCAGCTCC | -0.276
CCCGCTTA | -0.116
AGGTCAAG | -0.0752
CGTAACGC | 0.193

Sequence | PBM E-score
CAGCCATG | 0.14
GTTGCGTA | 0.378
CGAAATAC | 0.238
AAGCTATA | 0.0529
GGTGAAAC | -0.0316
ACATGACC | 0.38
GTACGAGA | 0.0653
TCAGATCA | -0.0646
AGTAAGAC | 0.0442
GAAACTCC | -0.211
CTTTTATC | -0.157
CTTGTCCC | -0.12
ATTTCGAA | 0.131
CAGGCGAC | -0.253
AGTGTGGG | -0.258
AATGCTAA | -0.0251
GGCGATTA | -0.0499
AGCAAAGG | -0.0572
ACGCAGAG | 0.0628
GGTTAAGA | 0.148
CTATCTGA | -0.317
GCCGTCGC | -0.0824
ACGCTTTA | 0.0657
TAATCTGA | 0.14
CAGGTCAC | -0.266

Sequence | PBM E-score
CGATTTCC | -0.213
GGCAGATA | -0.153
CCCACCGA | -0.267
ATCACGAT | -0.0443
GTAGTACA | 0.313
GGACAGGA | -0.158
ACGCTAAG | -0.0342
GTGTGAAA | 0.336
ATCGAAGG | -0.0945
ATGTGCTA | 0.0958
AACTTGAG | -0.122
AGTAACTC | -0.0308
GTCCCACA | -0.151
CATCCACA | -0.0215
CGACCATC | -0.216
AATTCCGG | -0.101
GAGCTAAC | -0.0046
AGTCAGTC | -0.146
ACCCCAAT | -0.053
GCCGGCCA | -0.131
ACTCAACC | 0.0477
CGATGCCG | -0.223
